A collection of fitness landscapes (doi:10.1126/science.1257360)
Some of the results follow.

B1: PhoQ; a variant is named by its letters at X, in order, P23837 (parent)
chain: MKKLLRLFFPLSLRVRFLLATAAVVLVLSLAYGMVALIGYSVSFDKTTFRLLRGESNLFYTLAKWENNKLHVELPENIDKQSPTMTLIYDENGQLLWAQRDVPWLMKMIQPDWLKSNGFHEIEADVNDTSLLLSGDHSIQQQLQEVREDDDDAEMTHSVAVNVYPATSRMPKLTIVVVDTIPVELKSSYMVWSWFIYVLSANLLLVIPLLWVAAWWSLRPIEALAKEVRELEEHNRELLNPATTRELTSLVRNLNRLLKSERERYDKYRTTLTDLTHSLKTPLXXLQXXLRSLRSEKMSVSDAEPVMLEQISRISQQIGYYLHRASMRGGTLLSRELHPVAPLLDNLTSALNKVYQRKGVNISLDISPEISFVGEQNDFVEVMGNVLDNACKYCLEFVEISARQTDEHLYIVVEDDGPGIPLSKREVIFDRGQRVDTLRPGQGVGLAVAREITEQYEGKIVAGESMLGGARMEVIFGRQHSAPKDE

Variants of: B1
Experiment: enrichment ratio after two sorts for PhoP signalling (ratio (wild type AVST 3.29)); higher = more functional
Conditions: with PhoP (E. coli)

Variant | enrichment ratio
ETNI | ≤ 0.25
WKAL | ≤ 0.25
ITFF | ≤ 0.25
FFAE | ≤ 0.25
TQEY | ≤ 0.25
HLLW | ≤ 0.25
HIER | ≤ 0.25
QGPY | ≤ 0.25
WAPW | ≤ 0.25
LFVR | ≤ 0.25
HGDG | ≤ 0.25
KCNC | ≤ 0.25
DHTP | ≤ 0.25
SGFP | ≤ 0.25
TKFL | 10.2
NVDH | ≤ 0.25
FKVH | ≤ 0.25
FEMR | ≤ 0.25
NKQG | ≤ 0.25
IKAI | ≤ 0.25
SHGE | ≤ 0.25
VFFS | ≤ 0.25
QLVQ | ≤ 0.25
PKMA | ≤ 0.25

Variant | enrichment ratio
FWKY | ≤ 0.25
EYLM | ≤ 0.25
EDAK | ≤ 0.25
EMHC | ≤ 0.25
GLSQ | ≤ 0.25
MPDH | ≤ 0.25
PHGE | ≤ 0.25
LGKT | ≤ 0.25
NCTS | ≤ 0.25
IKNN | ≤ 0.25
GCIF | ≤ 0.25
KDWY | ≤ 0.25
EHDD | ≤ 0.25
VLGE | ≤ 0.25
HIYD | ≤ 0.25
FWAK | ≤ 0.25
AAHK | ≤ 0.25
YKQR | ≤ 0.25
DSCM | ≤ 0.25
FHIQ | ≤ 0.25
LWLS | ≤ 0.25
EHMI | ≤ 0.25
SRGD | ≤ 0.25
GTQS | ≤ 0.25

Variant | enrichment ratio
KLRV | ≤ 0.25
TRMY | 0.856
DYED | ≤ 0.25
TPPH | ≤ 0.25
KRKH | ≤ 0.25
QNKQ | ≤ 0.25
DDGT | ≤ 0.25
NWFA | ≤ 0.25
SCYS | 0.535
FWIN | ≤ 0.25
YKAC | ≤ 0.25
QIIG | ≤ 0.25
PICV | ≤ 0.25
MMGC | ≤ 0.25
HALH | 3.81
HHYA | ≤ 0.25
QHAD | ≤ 0.25
GQIS | ≤ 0.25
HLTD | ≤ 0.25
EGMI | ≤ 0.25
DTTR | ≤ 0.25
GTWN | ≤ 0.25
NSAR | ≤ 0.25
TFMS | 1.78

Variant | enrichment ratio
NFSM | ≤ 0.25
SGWS | ≤ 0.25
IKHL | ≤ 0.25
PYYD | ≤ 0.25
TEPP | ≤ 0.25
TAQV | 5.92
LSTW | ≤ 0.25
ITRL | ≤ 0.25
YAVI | ≤ 0.25
VAKR | ≤ 0.25
PLHT | ≤ 0.25
QQNS | 8.87
SGPT | ≤ 0.25
SPIM | ≤ 0.25
WHYN | ≤ 0.25
PNMC | ≤ 0.25
MMKG | ≤ 0.25
KLCL | ≤ 0.25
MQSE | ≤ 0.25
HMFA | ≤ 0.25
WFLY | ≤ 0.25
FRML | ≤ 0.25
MYYH | ≤ 0.25
PECT | ≤ 0.25

Variant | enrichment ratio
SKDK | ≤ 0.25
FHFG | ≤ 0.25
SIYL | ≤ 0.25
NPHV | 0.966
RNNH | ≤ 0.25
RWQI | ≤ 0.25
DHAT | ≤ 0.25
MGGA | 24.1
YNHY | ≤ 0.25
ECDP | ≤ 0.25
RVYF | ≤ 0.25
HKKA | ≤ 0.25
ALRY | ≤ 0.25
LWQQ | ≤ 0.25
FAMM | 9.29
DMHR | ≤ 0.25
MPFA | ≤ 0.25
GWPP | ≤ 0.25
GHDI | ≤ 0.25
LPAM | ≤ 0.25
RWCF | ≤ 0.25
WPTG | ≤ 0.25
NELY | ≤ 0.25
SPQE | ≤ 0.25

Variant | enrichment ratio
VEHI | ≤ 0.25
ADRN | ≤ 0.25
DVGH | ≤ 0.25
PIGL | ≤ 0.25
DLWY | ≤ 0.25
HTRN | ≤ 0.25
QLFT | ≤ 0.25
FHGG | ≤ 0.25
VGGN | ≤ 0.25
QFRQ | ≤ 0.25
MDGG | ≤ 0.25
TDSP | ≤ 0.25
QHAW | ≤ 0.25
AIGP | ≤ 0.25
SEVE | 6.62
RTYG | ≤ 0.25
HKTR | ≤ 0.25
LTLI | 0.384
PSCK | ≤ 0.25
GEVM | 13.6
ALMW | ≤ 0.25
DTEQ | ≤ 0.25
EYQI | ≤ 0.25
YAIS | ≤ 0.25

Variant | enrichment ratio
EKGA | ≤ 0.25
GCPF | ≤ 0.25
HLDY | ≤ 0.25
QRPA | ≤ 0.25
TFYF | ≤ 0.25
LCWK | ≤ 0.25
TIEE | ≤ 0.25
LEKN | ≤ 0.25
YNAW | ≤ 0.25
PREC | ≤ 0.25
SWDG | ≤ 0.25
MDPA | ≤ 0.25
VGNE | ≤ 0.25
HDRD | ≤ 0.25
DDRL | ≤ 0.25
VGHS | ≤ 0.25
HEDL | ≤ 0.25
RVTR | ≤ 0.25
DMDV | ≤ 0.25
IVWK | ≤ 0.25
DWPW | ≤ 0.25
STSH | 8.84
TTKT | ≤ 0.25
AKCD | 0.285

Variant | enrichment ratio
LKHF | ≤ 0.25
DYAG | ≤ 0.25
YALN | 10.5
YQTY | ≤ 0.25
VLYI | ≤ 0.25
HQYC | ≤ 0.25
SYRG | ≤ 0.25
QHVQ | ≤ 0.25
SPAH | ≤ 0.25
FTTA | ≤ 0.25
HPMR | ≤ 0.25
VTHS | ≤ 0.25
WDNH | ≤ 0.25
FDMT | ≤ 0.25
LEQY | ≤ 0.25
LVVK | ≤ 0.25
VFNK | ≤ 0.25
LSWY | 2.49
VEQK | ≤ 0.25
APVE | ≤ 0.25
MYYL | ≤ 0.25
DSNF | ≤ 0.25
SRAN | ≤ 0.25
YESK | ≤ 0.25

Variant | enrichment ratio
GPNP | ≤ 0.25
TWML | ≤ 0.25
AYEM | ≤ 0.25
PDFI | ≤ 0.25
GCPA | ≤ 0.25
NHCN | ≤ 0.25
MIPA | ≤ 0.25
NPHM | ≤ 0.25
FWQC | ≤ 0.25
QLYE | ≤ 0.25
VFRR | ≤ 0.25
MKWF | ≤ 0.25
EWLL | ≤ 0.25
YWLF | ≤ 0.25
DFLL | ≤ 0.25
ERLT | ≤ 0.25
ANRT | ≤ 0.25
EKEP | ≤ 0.25
RSNH | ≤ 0.25
SKEM | ≤ 0.25
NSKW | ≤ 0.25
